Source: patent US4826975A, “Fused cycloaliphatic aminoalcohols” (Maggioni-Winthrop S.P.A., priority 1986, dated 1989)

How the values were obtained:
[1] = biological target: T1, serotoninergic 2 (5-HT2) receptors (Rattus norvegicus, UniProt P14842); experiment: receptor binding assay, inhibition of ^3 H-spiperone binding to rat brain membrane; details: for inhibition at 5.4 µM: 5.4 × 10^-6 M; for inhibition at 5.4 µM / inhibition at 0.54 µM: read-out: % Inhibition of the specific binding, ^3 H--Spiperone (5-HI2); for inhibition at 0.54 µM: 5.4 × 10^-7 M
T1 construct: from tissue; host or cells: rat brain membrane
Protocol: (§1) The receptor binding assay for the inhibition of ^3 H-Prazosin, ^3 H-clonidine and ^3 H-spiperone binding to rat brain membrane was carried out according to Greenberg et al., Life Sci. 19, 69, 1976, and U'Prichard et al., Molec. Pharmacol. 13, 454, 1977.

[2] = test system: SHR; experiment: anti-hypertensive activity in spontaneously hypertensive (SH) rats, tail artery plethysmography; details: for pressure decrease: SH rats; for Max. changes in systolic pressure: SHR, 15 mg/kg po
[3] = test system: alpha2 -adrenergic receptors; experiment: receptor binding assay, inhibition of ^3 H-clonidine binding to rat brain membrane
Protocol: as §1
(§2) Data for the tested compounds are reported in Table 3 where the 50% inhibiting concentrations (IC50) of Tibalosine and Urapidil are also given.

[4] = oral acute toxicity in male mice; details: mouse, in vivo
Protocol: The oral acute toxicity in male mice of the invention compound is very low. […]; and higher than 2,000 mg/kg for MG 38005, MG 28401, MG 28414 and MG 28427.

[5] = test system: phenylephrine (PHE) induced hypertension; format: in vivo, rat; details: 1 mg/kg i.v.
[6] = test system: alpha1 -adrenergic receptors; experiment: receptor binding assay, inhibition of ^3 H-Prazosin binding to rat brain membrane
Protocol: as §1, §2

[7] = test system: DOCA rats; format: in vivo, rat; details: 15 mg/kg po
Protocol: Changes in blood pressure (mm Hg) before (T=O) and after treatment (2, 4 and 6 hrs) were measured according to the method of tail artery plethysmography reported in "Spontaneously hypertensive rats (SHR), guidelines for breeding, care and use", SHR Conference, 1976, page 11.
The heart rate was also […] (BP Recorder No. 8006 supplied by Basile, Comerio, Italy). The arterial pressure before the treatment was 210±10 mmHg in SHR and 200±10 in DOCA rats.

[8] = test system: toxic adrenaline doses; experiment: animal or person; format: in vivo, mice; details: Mus musculus, po; 2 hrs before 14.5 mg/kg 1-adrenaline i.p., mortality after 24 hrs; read-out: DP50 (50% protective dose)
[9] = test system: Normolipemic rats; experiment: hypolipemic activity in normolipemic rats (serum lipids, liver weight); format: in vivo, rat
Protocol: Total cholesterol (CHOL), triglycerides (TG), HDL cholesterol CHOL-HDL) were assayed in serum and the liver was weighed.

[10] = test system: gasping time in mice; experiment: anti-hypoxic activity, gasping time after decapitation; format: in vivo; details: 100 mg/kg p.o., pretreatment 45 min.
Protocol: The anti-hypoxic activity was determined according to Yasuda et al., Arch. Int. Pharmacodyn. 233, 136, 1978.
Groups of 10 male mice (21-23 g) were treated orally with vehicle (controls) and the invention compounds. After 45 or 90 minutes the animals were decapitated and the gasping time was determined. Table 6 gives the results obtained after administration of some of the invention compounds which display an activity higher than Suloctidil.

[11] = test system: Normolipemic rats; details: rat, in vivo; cited from earlier work
[12] = biological target: alpha2 -adrenergic receptors; details: literature value; read-out: IC50, ^3 H--Clonidine (α2); cited from earlier work
[13] = biological target: alpha1 -adrenergic receptors; details: literature value; read-out: IC50, ^3 H--Prazosin (α1); cited from earlier work

T1 sequence (P14842 whole entry): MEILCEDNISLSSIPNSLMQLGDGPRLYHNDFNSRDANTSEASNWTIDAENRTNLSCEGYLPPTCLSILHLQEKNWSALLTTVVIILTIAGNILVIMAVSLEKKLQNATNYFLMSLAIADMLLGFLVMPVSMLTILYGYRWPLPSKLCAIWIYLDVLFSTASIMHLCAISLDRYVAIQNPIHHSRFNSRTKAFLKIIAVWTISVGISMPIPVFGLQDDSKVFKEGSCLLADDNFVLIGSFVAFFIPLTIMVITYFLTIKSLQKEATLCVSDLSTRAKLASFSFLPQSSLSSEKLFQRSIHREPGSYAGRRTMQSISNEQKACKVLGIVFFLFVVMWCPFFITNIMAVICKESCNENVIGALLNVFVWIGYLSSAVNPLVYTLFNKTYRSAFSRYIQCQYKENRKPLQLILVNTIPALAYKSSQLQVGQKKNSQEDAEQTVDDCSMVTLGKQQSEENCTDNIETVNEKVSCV

SMILES	inhibition at 5.4 µM [1]	inhibition at 0.54 µM [1]	pressure decrease ([2]; 5 mg/kg p.o.)	Max. changes in systolic pressure [2]	% Inhibition of the specific binding, ^3 H--Clonidine (α2) ([3]; 5.4 × 10^-6 M)	% Inhibition of the specific binding, ^3 H--Clonidine (α2) ([3]; 5.4 × 10^-7 M)	LD50 [4]	PHE dosis causing a 50 mm Hg increase of the arterial pressure, in comparison with the controls [5]	% Inhibition of the specific binding, ^3 H--Prazosin (α1) ([6]; 5.4 × 10^-6 M)	% Inhibition of the specific binding, ^3 H--Prazosin (α1) ([6]; 5.4 × 10^-7 M)	Max. changes in systolic pressure [7]	ED50 [8]	further results
COc1cc2c(cc1OC)[C@H](O)[C@H](N1CCC(n3c(=O)[nH]c4ccccc43)CC1)C2 (relative stereo) [MG 28401, cis 2-[4-(2-Oxo-1-benzimidazolinyl)-1-piperidinil]-5,6-dimethoxy-1-indanol]	81%	41%	37.6 mm Hg	-67 mmHg	0%	0%	> 2000 mg/kg	about 3 times	92%	54.5%	-40.2 mmHg	3.5 mg/kg	affinity toward serotoninergic 2 (5-HT2) receptors (in words) [1]: moderate affinity
COc1cc2c(cc1OC)[C@H](O)[C@@H](N1CCC(n3c(=O)[nH]c4ccccc43)CC1)C2 (relative stereo) [MG 28427, trans 2-[4-(2-Oxo-1-benzimidazolinyl)-1-piperidinil]-5,6-dimethoxy-1-indanol]			26.2 mm Hg	-47 mmHg			> 2000 mg/kg	about 3 times			-41.2 mmHg		pressure decrease ([2]; 1 mg/kg p.o.): 17.4 mm Hg
COc1cc2c(c(OC)c1OC)C[C@@H](N1CCC(n3c(=O)[nH]c4ccccc43)CC1)[C@H]2O (relative stereo) [MG 38007, cis 2-[4-(2-Oxo-2-benzimidazolinyl)-1-piperidinyl]-4,5,6-trimethoxy-1-indanol]	93%	49%	20 mm Hg	-61.4 mmHg	32.5%	3.5%			96%	75%	-37.4 mmHg	10 mg/kg	affinity toward serotoninergic 2 (5-HT2) receptors (in words) [1]: moderate affinity
COc1cc2c(c(OC)c1OC)C[C@H](N1CCC(n3c(=O)[nH]c4ccccc43)CC1)[C@H]2O (relative stereo) [MG 38019, trans 2-[4-(2-Oxo-2-benzimidazolinyl)-1-piperidinyl]-4,5,6-trimethoxy-1-indanol]	33%	10%		-56 mmHg	6.7%	0%	> 1000 mg/kg		82%	35.5%	-23 mmHg		
COc1cc2c(cc1OC)[C@H](O)[C@@H](N1CCC(n3c(=O)[nH]c4ccccc43)CC1)CC2 (relative stereo) [MG 38041, trans 2-[4-(2-Oxo-1-benzimidazolinyl)-1-piperidinyl]-6,7-dimethoxy-1-tetralol]							> 500 mg/kg	about 9 times				0.31 mg/kg	CHOL, % difference from control ([9]; 0.370 mM/kg po × 4 days): ~ 0%; CHOL-HDL, % difference from control ([9]; 0.370 mM/kg po × 4 days): +53.1%; Liver weight, % difference from control ([9]; 0.370 mM/kg po × 4 days): +2.0%; TG, % difference from control ([9]; 0.370 mM/kg po × 4 days): -44.2%; effect on TG and CHOL-HDL (in words) ([9]; oral, 4 days): decrease TG and increase CHOL-HDL; Gasping time, % diff. from control [10]: +56.2%
COc1cc2c(cc1OC)[C@H](O)[C@H](N1CCC(n3c(=O)[nH]c4ccccc43)CC1)CC2 (relative stereo) [MG 38060, cis-2-[4-(2-Oxo-1-benzimidazolinyl)-1-piperidinyl]-6,7-dimethoxy-1-tetralol]				-47 mmHg				about 9 times			-25.5 mmHg	1.28 mg/kg	
CCOC(=O)C(C)(C)Oc1ccc(Cl)cc1 [Clofibrate, reference compound]													CHOL, % difference from control ([9]; 0.820 mM/kg po × 4 days): -15.0%; CHOL-HDL, % difference from control ([9]; 0.820 mM/kg po × 4 days): 0%; Liver weight, % difference from control ([9]; 0.820 mM/kg po × 4 days): +19.5%; TG, % difference from control ([9]; 0.820 mM/kg po × 4 days): -40.0%; effect on liver, as known (in words) [11]: signicative liver increase
CC(NCCCCc1ccccc1)C(O)c1ccc2c(c1)CCS2 (stereo not drawn) [Tibalosine, reference compound]			13 mm Hg										anti-hypertensive activity (in words) ([2]; p.o., Tibalosine at 5 mg/kg, Table 1 compounds at 15 mg/kg): poorly active; IC50 [12]: 1000 µM; IC50 [13]: 0.4 µM
COc1ccccc1N1CCN(CCCNc2cc(=O)n(C)c(=O)n2C)CC1 [Urapidil]													IC50 [12]: 14 µM; IC50 [13]: 0.8 µM
